# The whole screen tested about 420,000 compounds, of which about 50,000 (12%) were called active. The shares of active, inactive and inconclusive entries below differ from those in the screen. The call rests on the fitted dose curve; in most records, active means well fitted inhibition curve with a large enough effect; inconclusive means small, poorly fitted or top-dose-only effect; inactive means flat fitted curve, though single readings scatter. Potencies of inconclusive entries are left out as doubtful fits.
# Experiment: qHTS for Inhibitors of human tyrosyl-DNA phosphodiesterase 1 (TDP1): qHTS in cells in presence of CPT; further: nearly all actives have a fitted effect of over 55% in size
# Settings: chicken DT40 Tdp1-/-;hTDP1 cells + 20 nM CPT, ATP luminescence, 48 h; activity change, negative = growth inhibition: at 46.2 µM (top of the series) unless noted
# Procedure, shortened: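 Chicken DT40 Tdp1-/- cells stably complemented with human TDP1 were seeded at 400 cells/well in medium containing 20 nM camptothecin, exposed to pin-transferred compounds, and grown at 37 °C for at least 48 hr. Viability was read as ATP luminescence.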
# On the % scale 0 is the no-effect control and ±100 the full control effect; potency means the concentration at half of the fitted maximal effect; tags describe the fitted curve by direction and shape.
SMILES,Potency,"activity change, negative = growth inhibition"
CC(C)c1ccc(NC(=O)C(c2ccccc2)N2CCC3(CC2)OCCO3)cc1 (centres undefined),"inconclusive [inhibitor, single point]",–
CCOc1ccc(CCN2C(=S)N([C@@H](Cc3ccc(O)cc3)CN3CCC[C@@H]3CN3C(=S)NC[C@@H]3CC(C)C)C[C@@H]2CC(C)C)cc1,active: 16.4 µM,–
COc1ccc(C2=CCCCCC2)cc1OC,"inconclusive [inhibitor, single point]",–
CCN(CC)S(=O)(=O)c1ccc(C(=O)NC2CC(=O)N(c3ccc(OC)c(OC)c3)C2)cc1 (centres undefined),–,inactive: 0.726%
CC(Oc1ccc(Cl)cc1)C(=O)Nc1ccc(S(=O)(=O)N2CCOCC2)cc1 (centres undefined),"inconclusive [inhibitor, single point]",–
CN1CCCCC1CCN1c2ccccc2Sc2ccc(S(C)=O)cc21 (centres undefined),"inconclusive [inhibitor, single point]",–
O=C(COc1ccc(Cl)cc1)NCC(c1ccco1)S(=O)(=O)c1ccc(F)cc1 (centres undefined),"inconclusive [inhibitor, single point]",–
CCOC(=O)c1cc(S(=O)(=O)N2CCc3ccccc32)cn1C,"inconclusive [inhibitor, single point]",–
O=C(NCc1ccncc1)c1cnn(-c2nccc(-c3cc4ccccc4o3)n2)c1C1CC1,"inconclusive [inhibitor, single point]",–
CCC(=O)NC(=S)Nc1ccc(NC(=O)c2cc3ccccc3o2)c(OC)c1,"inconclusive [inhibitor, single point]",–
Cc1ccc(N(CC(=O)NCCSc2ccccc2)S(=O)(=O)c2ccc(F)cc2)cc1,"inconclusive [inhibitor, single point]",–
CN1C(=O)C(O)(CC(=O)c2cccc(-n3cccc3)c2)c2ccccc21 (centres undefined),active: 20.6 µM,–
CN(C)c1ncc2nc(-c3ccccc3)c(=O)n(CCC#N)c2n1,–,inactive: -5.48%
CC(=O)c1ccc(NC(=O)c2cc3sccc3n2Cc2ccc(Cl)cc2)cc1,active: 16.4 µM,–
Cc1ccc(CNS(=O)(=O)c2ccc3[nH]c4c(c3c2)CCCCC4)cc1,"inconclusive [inhibitor, single point]",–
O=C(COc1ccc(Br)cc1)N/N=C1/SCC(=O)N1Cc1ccco1,"inconclusive [inhibitor, single point]",–
CCOP(=O)(OCC)c1nc(-c2ccc(Cl)cc2Cl)oc1N1CCCCC1,active: 11.6 µM,–
Cc1ccccc1OCC(=O)Nc1ccccc1N1CCCCC1,"inconclusive [inhibitor, single point]",–
COCCCn1c(=O)c2sccc2n2c(CCCC(=O)Nc3cccc(OC)c3)nnc12,–,inactive: -28.1%
COc1ccc(CNC(=O)c2cc3cccc4c3n2CC(C)S4)cc1OC (centres undefined),"inconclusive [inhibitor, single point]",–
Cc1ccc(-c2nc(NC(=O)c3nn(C)cc3[N+](=O)[O-])sc2C)cc1,"inconclusive [inhibitor, single point]",–
Cc1ccc2c(c1)N(S(=O)(=O)c1ccc(CN3C(=O)c4cccnc4C3=O)s1)CCO2,–,inactive: -10.3%
Cc1ccc(C)c(Nc2c([N+](=O)[O-])cc(C(=O)N3CC(=O)Nc4ccccc43)cc2[N+](=O)[O-])c1,"inconclusive [inhibitor, single point]",–

SMILES,Potency,"activity change, negative = growth inhibition"
COC(=O)C1=C(N)Oc2cc(C)n(Cc3ccccc3)c(=O)c2C1c1ccccc1 (centres undefined),–,inactive: -7.81%
COc1cc(NC(=O)COC(=O)CNC(=O)c2ccc(C)s2)cc(OC)c1,"inconclusive [inhibitor, single point]",–
CN(C)C(=O)CCN1CCOCC1,–,inactive: -46.6%
COc1ccc(-c2nc3ccccc3c(=O)n2CCOc2ccccc2C)cc1,"inconclusive [inhibitor, single point]",–
CCOc1nc(Nc2ccc(F)cc2)nc(N2CCN(c3ccc(OC)cc3)CC2)n1,"inconclusive [inhibitor, single point]",–
Cn1c(=O)[nH]c(=O)c2c1nc(NCCCO)n2CCOc1ccccc1,–,inconclusive: -30.8% [inhibitor]
Cc1cc(-c2ccc(C)c(S(=O)(=O)N3CCN(c4ccc(F)cc4)CC3)c2)on1,–,inactive: -30%
COc1ccccc1C(=O)N1CCN(C(=O)[C@H]2O[C@@H](n3ccc(N)nc3=O)[C@H](O)[C@@H]2O)CC1,–,inactive: 0.346%
CC12CCC(C(=O)N(CC(O)CN3CCCCC3)C1=O)C2(C)C (centres undefined),–,inactive: 5.5%
O=C(CCN1C(=O)/C(=C/c2ccccc2Cl)SC1=S)NN1CCOCC1,"inconclusive [inhibitor, single point]",–
O=S(=O)(/N=C(/Nc1cccc2ccccc12)c1ccc(F)cc1)c1ccccc1,"inconclusive [inhibitor, single point]",–
COc1ccc(Cl)cc1NC(=O)Cn1nc(C(F)(F)F)c2c1CCCC2,"inconclusive [inhibitor, single point]",–
COc1cc(CCC(=O)OCC(=O)c2ccc[nH]2)cc(OC)c1OC,"inconclusive [inhibitor, full curve, poor fit]",–
COc1cccc(CNC(=O)COC(=O)c2cc(Br)c(Br)s2)c1,–,inactive: -8.7%
Cc1ncnc(N)c1CCCNc1ccccc1,–,inactive: 7.29%
COCCCn1c(SCC(=O)Nc2ccc(F)cc2)nc2c(sc3ccccc32)c1=O,active: 14.6 µM,–
CC(C)NCC(=O)C12CC3CC(CC(C3)C1)C2,–,inactive: -3.63%
Cc1cc(N2C(=O)C(O)=C(C(=O)c3ccco3)C2c2ccc(Cl)cc2)no1 (centres undefined),"inconclusive [inhibitor, single point]",–
COc1ccc(N=C2SC(CC(=O)Nc3cccc(Cl)c3)C(=O)N2Cc2ccco2)cc1 (centres undefined),"inconclusive [inhibitor, single point]",–
COCCNC(=O)C1CCCN(C(=O)COc2ccc(C(C)(C)C)cc2)CC1 (centres undefined),–,inactive: -20.5%
Cc1nn(C)c(C)c1/C=N/N=C1\CCC2C3CCc4cc(O)ccc4C3CCC12C (centres undefined),"inconclusive [inhibitor, partial curve]",–
O=C(CCn1c(=O)c2cccn2c2ccc(F)cc21)NCc1cccc(F)c1,"inconclusive [inhibitor, single point]",–
Cc1ccc(C)n1-n1c(C)nc2sc(-c3ccccc3)cc2c1=O,active: 18.4 µM,–

SMILES,Potency,"activity change, negative = growth inhibition"
CC(OC(=O)Cn1[nH]c(=O)c2ccccc2c1=O)C(=O)Nc1cccc(Cl)c1 (centres undefined),"inconclusive [inhibitor, single point]",–
O=C(N/N=C/c1ccc([N+](=O)[O-])cc1)c1cc(-c2ccc3c(c2)OCO3)n[nH]1,–,inactive: 4.51%
COc1ccc(-c2cc(C(=O)N(C)CC(=O)Nc3ccccc3C(F)(F)F)c3ccccc3n2)cc1OC,active: 20.6 µM,–
Cc1ccc2nc(NC(=O)CN3C(=O)NC4(CCCCC4)C3=O)sc2c1,"inconclusive [inhibitor, single point]",–
O=C(Cc1c(F)cccc1Cl)N1CCCC1,–,inactive: -1.82%
COc1ccccc1OCCCn1c(=O)sc2ccccc21,–,inconclusive: -30.8% [inhibitor]
Cc1ccc(Cl)cc1-n1ncc2c(Nc3ccc4c(c3)OCCO4)ncnc21,active: 25.9 µM,–
O=C(COc1ccc(Br)cc1)N1CCN(S(=O)(=O)/C=C/c2ccccc2)CC1,"inconclusive [inhibitor, single point]",–
CCc1ccc(NC(=O)c2ccc(Cn3nc(N4CCN(c5ccccc5)CC4)ccc3=O)o2)cc1,"inconclusive [inhibitor, single point]",–
O=C(c1ccc2c(c1)N(Cc1c(F)cccc1Cl)C(=O)c1ccccc1S2)N1CCCC1,"inconclusive [inhibitor, single point]",–
Cc1ccnc(Nc2nc3ccccc3o2)n1,"inconclusive [inhibitor, partial curve, poor fit]",–
CCOc1cc(S(=O)(=O)NCCc2ccc(OC)c(OC)c2)c(OCC)cc1-n1cnnn1,–,inactive: 5.62%
C[C@H]1CCC[C@]2(C)C[C@H]3OC(=O)C(CN4CCCCCC4)[C@H]3C=C12 (some centres undefined),"inconclusive [inhibitor, single point]",–
Cc1ccc2cc(CN(CCCN3CCOCC3)C(c3nnnn3Cc3ccco3)C(C)C)c(=O)[nH]c2c1C (centres undefined),"inconclusive [inhibitor, single point]",–
NC(=O)C1CCN(C(=O)NC(=O)c2ccccc2)CC1,–,inactive: 4.78%
COc1ccc(/C=C(\C#N)c2nc3ccc(C)cc3[nH]2)cc1Oc1ccc(C(F)(F)F)cc1[N+](=O)[O-],"inconclusive [inhibitor, single point]",–
O=C1C(NS(=O)(=O)c2cccs2)=C(N2CCOCC2)C(=O)c2ccccc21,"inconclusive [inhibitor, single point]",–
Cc1ccc(CNC(=O)C(c2ccccc2)c2ccccc2)cc1,–,inactive: -10.6%
O=C(CN(C1CCCCC1)S(=O)(=O)c1ccc(F)cc1)NCC1CCCO1 (centres undefined),active: 8.2 µM,–
Cc1nn(-c2nc3ccccc3s2)c(C)c1Oc1ccccc1O,active: 18.4 µM,–
N#C/C=C1/NC(=O)c2ccccc2S1,"inconclusive [inhibitor, partial curve, poor fit]",–
O=C(NCC(c1ccco1)N1CCN(c2ccccc2F)CC1)c1ccc2c(c1)OCO2 (centres undefined),"inconclusive [inhibitor, single point]",–
CC(=O)N(CCC1(C(C)C)CCOC(C)(C)C1)C(C)c1cccs1 (centres undefined),"inconclusive [inhibitor, single point]",–
